Assay results: US20250361279A1 (Hoffmann-La Roche, published 2025)

T1: IL-7 receptor (IL-7R alpha chain and common gamma chain) on human T cells (human, UniProt P16871 21-459; P31785 23-369)
T1 sequence (looked up) 1: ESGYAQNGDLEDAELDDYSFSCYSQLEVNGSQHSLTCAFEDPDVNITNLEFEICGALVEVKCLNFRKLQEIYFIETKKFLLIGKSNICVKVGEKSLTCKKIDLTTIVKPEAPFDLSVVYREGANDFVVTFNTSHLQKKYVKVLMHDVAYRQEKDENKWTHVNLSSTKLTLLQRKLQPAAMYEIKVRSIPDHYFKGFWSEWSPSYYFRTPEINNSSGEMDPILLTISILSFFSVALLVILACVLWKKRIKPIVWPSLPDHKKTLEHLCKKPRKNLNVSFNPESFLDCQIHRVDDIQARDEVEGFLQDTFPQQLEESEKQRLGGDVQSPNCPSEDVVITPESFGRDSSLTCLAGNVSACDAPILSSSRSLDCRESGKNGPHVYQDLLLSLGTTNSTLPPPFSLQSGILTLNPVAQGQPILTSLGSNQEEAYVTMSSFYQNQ
T1 sequence (looked up) 2: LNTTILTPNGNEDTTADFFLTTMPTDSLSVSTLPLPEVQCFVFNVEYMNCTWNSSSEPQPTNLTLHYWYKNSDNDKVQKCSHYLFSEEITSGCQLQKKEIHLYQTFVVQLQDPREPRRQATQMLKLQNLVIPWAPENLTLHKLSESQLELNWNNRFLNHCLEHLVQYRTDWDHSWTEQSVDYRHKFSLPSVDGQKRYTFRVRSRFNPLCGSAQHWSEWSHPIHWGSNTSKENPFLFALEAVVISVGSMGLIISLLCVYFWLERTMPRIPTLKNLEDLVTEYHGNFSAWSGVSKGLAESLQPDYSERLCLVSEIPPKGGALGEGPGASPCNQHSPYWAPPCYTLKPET

B1: P1AH6019 (new PD1-IL7v, fully glycosylated; IL7 K81E, G85Q; (G2SG2)3 linker) (other)
light: DIVMTQSPDSLAVSLGERATINCKASESVDTSDNSFIHWYQQKPGQSPKLLIYRSSTLESGVPDRFSGSGSGTDFTLTISSLQAEDVAVYYCQQNYDVPWTFGQGTKVEIKRTVAAPSVFIFPPSDEQLKSGTASVVCLLNNFYPREAKVQWKVDNALQSGNSQESVTEQDSKDSTYSLSSTLTLSKADYEKHKVYACEVTHQGLSSPVTKSFNRGEC
heavy 1: EVQLLESGGGLVQPGGSLRLSCAASGFSFSSYTMSWVRQAPGKGLEWVATISGGGRDIYYPDSVKGRFTISRDNSKNTLYLQMNSLRAEDTAVYYCVLLTGRVYFALDSWGQGTLVTVSSASTKGPSVFPLAPSSKSTSGGTAALGCLVKDYFPEPVTVSWNSGALTSGVHTFPAVLQSSGLYSLSSVVTVPSSSLGTQTYICNVNHKPSNTKVDKKVEPKSCDKTHTCPPCPAPEAAGGPSVFLFPPKPKDTLMISRTPEVTCVVVDVSHEDPEVKFNWYVDGVEVHNAKTKPREEQYNSTYRVVSVLTVLHQDWLNGKEYKCKVSNKALGAPIEKTISKAKGQPREPQVCTLPPSRDELTKNQVSLSCAVKGFYPSDIAVEWESNGQPENNYKTTPPVLDSDGSFFLVSKLTVDKSRWQQGNVFSCSVMHEALHNHYTQKSLSLSPG
heavy 2: EVQLLESGGGLVQPGGSLRLSCAASGFSFSSYTMSWVRQAPGKGLEWVATISGGGRDIYYPDSVKGRFTISRDNSKNTLYLQMNSLRAEDTAVYYCVLLTGRVYFALDSWGQGTLVTVSSASTKGPSVFPLAPSSKSTSGGTAALGCLVKDYFPEPVTVSWNSGALTSGVHTFPAVLQSSGLYSLSSVVTVPSSSLGTQTYICNVNHKPSNTKVDKKV[sequence of human IgG1 Fc with changes omitted]GGSGGGGSGGGGSGGDCDIEGKDGKQYESVLMVSIDQLLDSMKEIGSNCLNNEFNFFKRHICDANKEGMFLFRAARKLRQFLKMNSTGDFDLHLLEVSEQTTILLNCTGQVKGRKPAALGEAQPTKSLEENKSLKEQKKLNDLCFLKRLLQEIKTCWNKILMGTKEH
B2: P1AH6018 (new PD1-IL7v, fully glycosylated; IL7 K81Q, G85E; (G2SG2)3 linker) (other)
light: B1 light
heavy 1: B1 heavy 1
heavy 2: EVQLLESGGGLVQPGGSLRLSCAASGFSFSSYTMSWVRQAPGKGLEWVATISGGGRDIYYPDSVKGRFTISRDNSKNTLYLQMNSLRAEDTAVYYCVLLTGRVYFALDSWGQGTLVTVSSASTKGPSVFPLAPSSKSTSGGTAALGCLVKDYFPEPVTVSWNSGALTSGVHTFPAVLQSSGLYSLSSVVTVPSSSLGTQTYICNVNHKPSNTKVDKKV[sequence of human IgG1 Fc with changes omitted]GGSGGGGSGGGGSGGDCDIEGKDGKQYESVLMVSIDQLLDSMKEIGSNCLNNEFNFFKRHICDANKEGMFLFRAARKLRQFLKMNSTGDFDLHLLQVSEETTILLNCTGQVKGRKPAALGEAQPTKSLEENKSLKEQKKLNDLCFLKRLLQEIKTCWNKILMGTKEH
B3: P1AH6025 (new PD1-IL7v, fully glycosylated; IL7 L77K, G85E; (G2SG2)3 linker) (other)
light: B1 light
heavy 1: B1 heavy 1
heavy 2: EVQLLESGGGLVQPGGSLRLSCAASGFSFSSYTMSWVRQAPGKGLEWVATISGGGRDIYYPDSVKGRFTISRDNSKNTLYLQMNSLRAEDTAVYYCVLLTGRVYFALDSWGQGTLVTVSSASTKGPSVFPLAPSSKSTSGGTAALGCLVKDYFPEPVTVSWNSGALTSGVHTFPAVLQSSGLYSLSSVVTVPSSSLGTQTYICNVNHKPSNTKVDKKV[sequence of human IgG1 Fc with changes omitted]GGSGGGGSGGGGSGGDCDIEGKDGKQYESVLMVSIDQLLDSMKEIGSNCLNNEFNFFKRHICDANKEGMFLFRAARKLRQFLKMNSTGDFDKHLLKVSEETTILLNCTGQVKGRKPAALGEAQPTKSLEENKSLKEQKKLNDLCFLKRLLQEIKTCWNKILMGTKEH
B4: P1AG0950 (PD1-IL7var18_21, fully glycosylated; IL7 K81E, G85E; 3G4S linker) (other)
light: B1 light
heavy 1: B1 heavy 1
heavy 2: EVQLLESGGGLVQPGGSLRLSCAASGFSFSSYTMSWVRQAPGKGLEWVATISGGGRDIYYPDSVKGRFTISRDNSKNTLYLQMNSLRAEDTAVYYCVLLTGRVYFALDSWGQGTLVTVSSASTKGPSVFPLAPSSKSTSGGTAALGCLVKDYFPEPVTVSWNSGALTSGVHTFPAVLQSSGLYSLSSVVTVPSSSLGTQTYICNVNHKPSNTKVDKKV[sequence of human IgG1 Fc with changes omitted]GGGGSGGGGSGGGGSDCDIEGKDGKQYESVLMVSIDQLLDSMKEIGSNCLNNEFNFFKRHICDANKEGMFLFRAARKLRQFLKMNSTGDFDLHLLEVSEETTILLNCTGQVKGRKPAALGEAQPTKSLEENKSLKEQKKLNDLCFLKRLLQEIKTCWNKILMGTKEH
B5: P1AH6020 (new PD1-IL7v, fully glycosylated; IL7 K81Q, G85Q; (G2SG2)3 linker) (other)
light: B1 light
heavy 1: B1 heavy 1
heavy 2: EVQLLESGGGLVQPGGSLRLSCAASGFSFSSYTMSWVRQAPGKGLEWVATISGGGRDIYYPDSVKGRFTISRDNSKNTLYLQMNSLRAEDTAVYYCVLLTGRVYFALDSWGQGTLVTVSSASTKGPSVFPLAPSSKSTSGGTAALGCLVKDYFPEPVTVSWNSGALTSGVHTFPAVLQSSGLYSLSSVVTVPSSSLGTQTYICNVNHKPSNTKVDKKV[sequence of human IgG1 Fc with changes omitted]GGSGGGGSGGGGSGGDCDIEGKDGKQYESVLMVSIDQLLDSMKEIGSNCLNNEFNFFKRHICDANKEGMFLFRAARKLRQFLKMNSTGDFDLHLLQVSEQTTILLNCTGQVKGRKPAALGEAQPTKSLEENKSLKEQKKLNDLCFLKRLLQEIKTCWNKILMGTKEH

These binders were tested against T1, IL-7 receptor (IL-7R alpha chain and …) (assay: cell-based or functional assay).

Potency reduction to PD1-IL7wt: EC50 (PD1+)/EC50 (PD1-IL7wt) [fold] | STAT-5P AUC, PD1+ CD4 T cells | STAT-5P AUC, PD1-blocked CD4 T cells | Binder
46 | 58 | 21.5 | B1
71 | 53 | 17.6 | B2
77.8 | 19.9 | 4.8 | B3
4.1 | 19.5 | 7.8 | B4
5.7 | 118 | 75.8 | B5

What follows are binders tested against human PD-1 on activated CD4 T cells (human, UniProt Q15116 25-288) (assay: cell-based or functional assay).

Cis-delivery: fold increase in EC50, EC50 [with PD1bl]/EC50 [no PD1bl] [fold] | Delta AUC (PD1+ vs PD1bl.) | Binder
35.1 | 36.5 | B1
36.4 | 35.5 | B2
0.01 | 15.1 | B3
0.2 | 11.7 | B4
5.1 | 42.4 | B5

Biological target: T1, IL-7 receptor (IL-7R alpha chain and …)
Assay: cell-based or functional assay
Remark: another data set of the same source

Percentage of rescued Granzyme B production by Tconv (Treg suppression assay, 6 nM) [%] | Percentage of suppressed Granzyme B production by Tconv (Treg suppression assay, 6 nM) [%] | Binder
57.7 | 42.3 | B1
53.3 | 46.7 | B2
31.2 | 68.8 | B3
